The source of these data is paper PMC10162974.

Protein sequences, listed by entry. Tags and fused reporters are not part of them. Lines headed by an entry give the natural chain unless they say otherwise; changes in a name come on top.
UniProt Q00765: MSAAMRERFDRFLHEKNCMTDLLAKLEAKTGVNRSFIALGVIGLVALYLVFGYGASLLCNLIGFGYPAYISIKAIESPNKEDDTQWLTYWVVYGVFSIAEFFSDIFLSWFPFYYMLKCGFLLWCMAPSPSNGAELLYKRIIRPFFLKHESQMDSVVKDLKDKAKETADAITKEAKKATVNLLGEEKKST

Results are given in words; binding and its absence hold for the method and conditions named. In cells and extracts the contact can be indirect. Some results given as binding are weak or reduced against the parent protein; the word gives no strength. For some assays here: Sequences can lack the tags named with a protein.

Experiment [1] has as its target REEP5-HA L61F/G119V (human) (UniProt Q00765). The experiment can be described thus: cross-linking; EGS cross-linking of yeast membrane pellet in HKM buffer (25 mM Hepes pH 7.8, 150 mM KCl, 2.5 mM MgCl2), 30 min, room temperature; 4-20% SDS-PAGE, anti-HA blot.
Experiment [2] has as its target Yop1p-HA F68C (S. cerevisiae) (UniProt Q12402). The experiment can be described thus: cross-linking; disulfide cross-linking of single-Cys Yop1p-HA in yeast microsomal membrane fractions, 1 mM copper-o-phenanthroline (Cu:Phe), 30 min, room temperature; 100 mM DTT as reduced control; non-reducing SDS-PAGE, anti-HA blot.
Experiment [3] concerns the target Yop1p-HA W94C (S. cerevisiae) (UniProt Q12402). The experiment is described as above.
Experiment [4] deals with Yop1p-HA L43C (S. cerevisiae) (UniProt Q12402). Described as above.
Experiment [5] has as its target Yop1p-HA F116C/V123C (S. cerevisiae) (UniProt Q12402). As to the kind of experiment: cross-linking; disulfide cross-linking of Cys mutants of Yop1p-HA (F116C, W118C, double mutants) upon oxidation; oxidant not named for these panels.
Experiment [6] concerns the target Yop1p-HA V123C (S. cerevisiae) (UniProt Q12402). The experiment can be described thus: cross-linking; disulfide cross-linking of single-Cys Yop1p-HA in yeast microsomal membrane fractions, 1 mM copper-o-phenanthroline (Cu:Phe), 30 min, room temperature; 100 mM DTT as reduced control; non-reducing SDS-PAGE, anti-HA blot.
Experiment [7] deals with Yop1p-HA F124C (S. cerevisiae) (UniProt Q12402). The experiment is described as above.
In experiment [8] the target is Yop1p-HA S178C (S. cerevisiae) (UniProt Q12402). The experiment can be described thus: cross-linking; disulfide cross-linking of single-Cys Yop1p-HA (cytosolic regions) in yeast microsomal membrane fractions, oxidation by 2 mM diamide, 30 min, room temperature; anti-HA blot.
The target of experiment [9] is Yop1p-HA D87C (S. cerevisiae) (UniProt Q12402). The description is as above.
Experiment [10] has as its target Yop1p-HA F65C/S178C (S. cerevisiae) (UniProt Q12402). As to the kind of experiment: cross-linking; disulfide cross-linking of Cys mutants of Yop1p-HA (F116C, W118C, double mutants) upon oxidation; oxidant not named for these panels.
Experiment [11] addresses Yop1p-HA F65C/F68C (S. cerevisiae) (UniProt Q12402). The experiment is described as above.
Experiment [12] addresses Yop1p-HA F65C (S. cerevisiae) (UniProt Q12402). The experiment can be described thus: cross-linking; disulfide cross-linking of single-Cys Yop1p-HA in yeast microsomal membrane fractions, 1 mM copper-o-phenanthroline (Cu:Phe), 30 min, room temperature; 100 mM DTT as reduced control; non-reducing SDS-PAGE, anti-HA blot.
In experiment [13] the target is Yop1p-HA F45C (S. cerevisiae) (UniProt Q12402). The description is as above.
For experiment [14], the target named is Yop1p-HA V123C/S178C (S. cerevisiae) (UniProt Q12402). The experiment can be described thus: cross-linking; disulfide cross-linking of Cys mutants of Yop1p-HA (F116C, W118C, double mutants) upon oxidation; oxidant not named for these panels.
The target of experiment [15] is Yop1p-HA F65C/V123C (S. cerevisiae) (UniProt Q12402). Described as above.
Experiment [16] has as its target Yop1p-HA F116C (S. cerevisiae) (UniProt Q12402). The description is as above.
Experiment [17] deals with Yop1p-HA S157C (S. cerevisiae) (UniProt Q12402). The experiment can be described thus: cross-linking; disulfide cross-linking of single-Cys Yop1p-HA (cytosolic regions) in yeast microsomal membrane fractions, oxidation by 2 mM diamide, 30 min, room temperature; anti-HA blot.

For “REEP5-HA L61F/G119V (from UniProt Q00765 1-189)”, the binding result in experiment [1] was “binds”.

B1: Yop1p-HA F68C (protein, UniProt Q12402 1-180)
chain: MSEYASSIHSQMKQFDTKYSGNRILQQLENKTNLPKSYLVAGLGFAYLLLIFINVGGVGEILSNFAGCVLPAYLSLVALKTPTSTDDTQLLTYWIVFSFLSVIEFWSKAILYLIPFYWFLKTVFLIYIALPQTGGARMIYQKIVAPLTDRYILRDVSKTEKDEIRASVNEASKATGASVH
As to B1, in experiment [2], the binding entry is “binds”.

B2: Yop1p-HA W94C (protein, UniProt Q12402 1-180)
chain: MSEYASSIHSQMKQFDTKYSGNRILQQLENKTNLPKSYLVAGLGFAYLLLIFINVGGVGEILSNFAGFVLPAYLSLVALKTPTSTDDTQLLTYCIVFSFLSVIEFWSKAILYLIPFYWFLKTVFLIYIALPQTGGARMIYQKIVAPLTDRYILRDVSKTEKDEIRASVNEASKATGASVH
Consider B2, for which, in experiment [3], the binding result is “binds”.

B3: Yop1p-HA L43C (protein, UniProt Q12402 1-180)
chain: MSEYASSIHSQMKQFDTKYSGNRILQQLENKTNLPKSYLVAGCGFAYLLLIFINVGGVGEILSNFAGFVLPAYLSLVALKTPTSTDDTQLLTYWIVFSFLSVIEFWSKAILYLIPFYWFLKTVFLIYIALPQTGGARMIYQKIVAPLTDRYILRDVSKTEKDEIRASVNEASKATGASVH
Regarding B3, in [4], the binding entry is recorded as “binds”.

B4: Yop1p-HA F116C/V123C (protein, UniProt Q12402 1-180)
chain: MSEYASSIHSQMKQFDTKYSGNRILQQLENKTNLPKSYLVAGLGFAYLLLIFINVGGVGEILSNFAGFVLPAYLSLVALKTPTSTDDTQLLTYWIVFSFLSVIEFWSKAILYLIPCYWFLKTCFLIYIALPQTGGARMIYQKIVAPLTDRYILRDVSKTEKDEIRASVNEASKATGASVH
Regarding B4, the binding result in experiment [5] is reported as “binds”.

B5: Yop1p-HA V123C (protein, UniProt Q12402 1-180)
chain: MSEYASSIHSQMKQFDTKYSGNRILQQLENKTNLPKSYLVAGLGFAYLLLIFINVGGVGEILSNFAGFVLPAYLSLVALKTPTSTDDTQLLTYWIVFSFLSVIEFWSKAILYLIPFYWFLKTCFLIYIALPQTGGARMIYQKIVAPLTDRYILRDVSKTEKDEIRASVNEASKATGASVH
As to B5, in [6], the binding result was “binds”.

B6: Yop1p-HA F124C (protein, UniProt Q12402 1-180)
chain: MSEYASSIHSQMKQFDTKYSGNRILQQLENKTNLPKSYLVAGLGFAYLLLIFINVGGVGEILSNFAGFVLPAYLSLVALKTPTSTDDTQLLTYWIVFSFLSVIEFWSKAILYLIPFYWFLKTVCLIYIALPQTGGARMIYQKIVAPLTDRYILRDVSKTEKDEIRASVNEASKATGASVH
B6: the binding entry in experiment [7] is listed as “binds”.

B7: Yop1p-HA S178C (protein, UniProt Q12402 1-180)
chain: MSEYASSIHSQMKQFDTKYSGNRILQQLENKTNLPKSYLVAGLGFAYLLLIFINVGGVGEILSNFAGFVLPAYLSLVALKTPTSTDDTQLLTYWIVFSFLSVIEFWSKAILYLIPFYWFLKTVFLIYIALPQTGGARMIYQKIVAPLTDRYILRDVSKTEKDEIRASVNEASKATGACVH
For B7, the binding result in [8] is recorded as “binds”.

B8: Yop1p-HA D87C (protein, UniProt Q12402 1-180)
chain: MSEYASSIHSQMKQFDTKYSGNRILQQLENKTNLPKSYLVAGLGFAYLLLIFINVGGVGEILSNFAGFVLPAYLSLVALKTPTSTDCTQLLTYWIVFSFLSVIEFWSKAILYLIPFYWFLKTVFLIYIALPQTGGARMIYQKIVAPLTDRYILRDVSKTEKDEIRASVNEASKATGASVH
On to B8, for which, in experiment [9], the binding result is on record as “binds”.

B9: Yop1p-HA F65C/S178C (protein, UniProt Q12402 1-180)
chain: MSEYASSIHSQMKQFDTKYSGNRILQQLENKTNLPKSYLVAGLGFAYLLLIFINVGGVGEILSNCAGFVLPAYLSLVALKTPTSTDDTQLLTYWIVFSFLSVIEFWSKAILYLIPFYWFLKTVFLIYIALPQTGGARMIYQKIVAPLTDRYILRDVSKTEKDEIRASVNEASKATGACVH
As to B9, in experiment [10], the binding result is on record as “binds”.

B10: Yop1p-HA F65C/F68C (protein, UniProt Q12402 1-180)
chain: MSEYASSIHSQMKQFDTKYSGNRILQQLENKTNLPKSYLVAGLGFAYLLLIFINVGGVGEILSNCAGCVLPAYLSLVALKTPTSTDDTQLLTYWIVFSFLSVIEFWSKAILYLIPFYWFLKTVFLIYIALPQTGGARMIYQKIVAPLTDRYILRDVSKTEKDEIRASVNEASKATGASVH
Turning to B10, in experiment [11], the binding entry is reported as “binds”.

B11: Yop1p-HA F65C (protein, UniProt Q12402 1-180)
chain: MSEYASSIHSQMKQFDTKYSGNRILQQLENKTNLPKSYLVAGLGFAYLLLIFINVGGVGEILSNCAGFVLPAYLSLVALKTPTSTDDTQLLTYWIVFSFLSVIEFWSKAILYLIPFYWFLKTVFLIYIALPQTGGARMIYQKIVAPLTDRYILRDVSKTEKDEIRASVNEASKATGASVH
With B11, the binding entry in experiment [12] is recorded as “binds”.

B12: Yop1p-HA F45C (protein, UniProt Q12402 1-180)
chain: MSEYASSIHSQMKQFDTKYSGNRILQQLENKTNLPKSYLVAGLGCAYLLLIFINVGGVGEILSNFAGFVLPAYLSLVALKTPTSTDDTQLLTYWIVFSFLSVIEFWSKAILYLIPFYWFLKTVFLIYIALPQTGGARMIYQKIVAPLTDRYILRDVSKTEKDEIRASVNEASKATGASVH
B12: in [13], the binding result is listed as “binds”.

B13: Yop1p-HA V123C/S178C (protein, UniProt Q12402 1-180)
chain: MSEYASSIHSQMKQFDTKYSGNRILQQLENKTNLPKSYLVAGLGFAYLLLIFINVGGVGEILSNFAGFVLPAYLSLVALKTPTSTDDTQLLTYWIVFSFLSVIEFWSKAILYLIPFYWFLKTCFLIYIALPQTGGARMIYQKIVAPLTDRYILRDVSKTEKDEIRASVNEASKATGACVH
For the molecule B13, the binding result in experiment [14] is “binds”.

B14: Yop1p-HA F65C/V123C (protein, UniProt Q12402 1-180)
chain: MSEYASSIHSQMKQFDTKYSGNRILQQLENKTNLPKSYLVAGLGFAYLLLIFINVGGVGEILSNCAGFVLPAYLSLVALKTPTSTDDTQLLTYWIVFSFLSVIEFWSKAILYLIPFYWFLKTCFLIYIALPQTGGARMIYQKIVAPLTDRYILRDVSKTEKDEIRASVNEASKATGASVH
Take B14: the binding entry in [15] is listed as “binds”.

B15: Yop1p-HA F116C (protein, UniProt Q12402 1-180)
chain: MSEYASSIHSQMKQFDTKYSGNRILQQLENKTNLPKSYLVAGLGFAYLLLIFINVGGVGEILSNFAGFVLPAYLSLVALKTPTSTDDTQLLTYWIVFSFLSVIEFWSKAILYLIPCYWFLKTVFLIYIALPQTGGARMIYQKIVAPLTDRYILRDVSKTEKDEIRASVNEASKATGASVH
Regarding B15, the binding entry in experiment [16] is “binds”.

B16: Yop1p-HA S157C (protein, UniProt Q12402 1-180)
chain: MSEYASSIHSQMKQFDTKYSGNRILQQLENKTNLPKSYLVAGLGFAYLLLIFINVGGVGEILSNFAGFVLPAYLSLVALKTPTSTDDTQLLTYWIVFSFLSVIEFWSKAILYLIPFYWFLKTVFLIYIALPQTGGARMIYQKIVAPLTDRYILRDVCKTEKDEIRASVNEASKATGASVH
On to B16, for which the binding result in [17] is given as “binds”.
